Structures are written as SMILES. The list shows a part of the results.

The subject of one test is HSkMC. Nature of the test: cytotoxicity call (relative viability < 0.9). The conditions noted are these: 10 µM.
For another test, the system named is S. aureus RN4220. Nature of the test: growth inhibition call (relative growth <= 0.2). Particulars: 50 µM.

On to `C[C@@H]1CN([C@@H](C)CO)C(=O)c2cc(NC(=O)CCCCCC(=O)Nc3ccccc3N)ccc2O[C@@H]1CN(C)CC1CCCCC1`, for which the cytotoxicity call in the test with HSkMC is “inactive”. Further, in the test with S. aureus RN4220, the growth inhibition call is “inactive”.

As for `C[C@@H]1O[C@@H](OC[C@H]2O[C@@H](OCCc3ccccc3)[C@H](O)[C@@H](O)[C@@H]2O)[C@H](O)[C@H](O)[C@H]1O`, the cytotoxicity call in the test on HSkMC is “inactive”. Besides, the growth inhibition call in the test on S. aureus RN4220 was “inactive”.

On to `C[C@@H]1CN([C@H](C)CO)C(=O)c2cc(NC(=O)Cc3ccccc3)ccc2O[C@@H](C)CCCCO[C@@H]1CN(C)CC1CCCCC1`, for which, in the test on HSkMC, the cytotoxicity call is “inactive”. In addition, the growth inhibition call in the test with S. aureus RN4220 is “inactive”.

For the compound `O=C1N[C@H](Cc2c[nH]c3ccccc23)COC(=O)[C@@H](Cc2ccc(F)cc2)CCC=CC[C@@H]1CC(=O)N(CCO)Cc1ccccc1`, in the test with HSkMC, the cytotoxicity call is “inactive”. Besides, the growth inhibition call in the test with S. aureus RN4220 is “inactive”.

Take `C[C@H]1CN([C@@H](C)CO)C(=O)CCCn2cc(nn2)CO[C@@H]1CN(C)C(=O)Nc1cccc(Oc2ccccn2)c1`: in the test with HSkMC, the cytotoxicity call is “inactive”. For the same compound, the growth inhibition call with S. aureus RN4220 was “inactive”.

Regarding `C[C@@H]1CCCCO[C@H](CN(C)Cc2ccc(Cl)c(Cl)c2)[C@H](C)CN([C@@H](C)CO)C(=O)c2cc(NC(=O)C3CCCCC3)ccc2O1`, in the test on HSkMC, the cytotoxicity call is “inactive”. Further, the growth inhibition call in the test with S. aureus RN4220 is “inactive”.

With `O=C(C[C@@H]1CC[C@H]2[C@@H](COC[C@H](O)CN2CC2CCOCC2)O1)N1CCOCC1`, in the test on HSkMC, the cytotoxicity call is “inactive”. Besides, the growth inhibition call in the test with S. aureus RN4220 is “inactive”.

Regarding `CO[C@H]1CN(C)C(=O)c2ccc(NC(=O)Nc3cccc(Cl)c3)cc2OC[C@@H](C)N(C(=O)Nc2c(C)noc2C)C[C@H]1C`, the cytotoxicity call with HSkMC is “inactive”. Also, the growth inhibition call with S. aureus RN4220 was “inactive”.

Take `Cc1noc(C)c1S(=O)(=O)N(C)C[C@@H]1Oc2ccc(NS(=O)(=O)c3cn(C)cn3)cc2CC(=O)N([C@H](C)CO)C[C@@H]1C`: in the test with HSkMC, the cytotoxicity call is “inactive”. In the test on S. aureus RN4220, the growth inhibition call was “inactive”.

With `C[C@H](CO)N1C[C@H](C)[C@@H](CN(C)S(=O)(=O)c2cccs2)Oc2ccc(NS(=O)(=O)c3cn(C)cn3)cc2CC1=O`, in the test on HSkMC, the cytotoxicity call is “inactive”. In addition, in the test with S. aureus RN4220, the growth inhibition call is “inactive”.

`C[C@H]1CCCCO[C@H](CN(C)S(=O)(=O)c2ccccc2)[C@@H](C)CN([C@@H](C)CO)C(=O)c2cc(NC(=O)Nc3ccccc3)ccc2O1`: the cytotoxicity call in the test with HSkMC is “inactive”. For the same compound, the growth inhibition call in the test with S. aureus RN4220 was “inactive”.

Turning to `C[C@@H]1CCCCO[C@H](CN(C)Cc2ccc(C(=O)O)cc2)[C@H](C)CN([C@@H](C)CO)C(=O)c2cc(NC(=O)Nc3ccc(F)cc3)ccc2O1`, the cytotoxicity call in the test with HSkMC was “inactive”. Also, the growth inhibition call in the test with S. aureus RN4220 was “inactive”.

As for `C[C@H](CO)N1C[C@H](C)[C@H](CN(C)CC2CCCCC2)OCCCC[C@H](C)Oc2ccc(NC(=O)CCCN(C)C)cc2C1=O`, the cytotoxicity call with HSkMC was “inactive”. For the same compound, in the test on S. aureus RN4220, the growth inhibition call was “inactive”.

For `C[C@H](CO)N1C[C@H](C)[C@@H](CN(C)S(=O)(=O)c2ccccc2)Oc2c(NC(=O)C3CC3)cccc2C1=O`, in the test on HSkMC, the cytotoxicity call is “inactive”. Also, the growth inhibition call with S. aureus RN4220 is “inactive”.

As for `C[C@@H]1CN([C@H](C)CO)C(=O)c2cc(NC(=O)Nc3ccccc3)ccc2O[C@@H]1CN(C)S(=O)(=O)c1cn(C)cn1`, in the test on HSkMC, the cytotoxicity call was “inactive”. In addition, the growth inhibition call in the test on S. aureus RN4220 was “inactive”.

On to `CN(C)CCCCNC(=O)[C@@H]1C[C@@H]2C(=O)N[C@@H](CCCCN)C(=O)N2[C@@H]1c1ccc(O)cc1`, for which the cytotoxicity call in the test with HSkMC was “inactive”. Besides, in the test on S. aureus RN4220, the growth inhibition call was “inactive”.

As to `CC(=O)N[C@@H]1[C@@H](OCCOc2ccc(Cl)cc2C)O[C@H](CO)[C@H](O)[C@@H]1O`, the cytotoxicity call with HSkMC is “inactive”. Also, the growth inhibition call in the test on S. aureus RN4220 is “inactive”.

`COc1ccc(S(=O)(=O)N(C)C[C@H]2OCCCC[C@@H](C)Oc3ccc(NC(=O)Nc4ccc(C(F)(F)F)cc4)cc3C(=O)N([C@H](C)CO)C[C@@H]2C)cc1`: in the test with HSkMC, the cytotoxicity call was “inactive”. Also, the growth inhibition call with S. aureus RN4220 was “inactive”.

As for `C[C@@H]1CN([C@H](C)CO)C(=O)Cc2cc(NC(=O)CCCCCC(=O)Nc3ccccc3N)ccc2O[C@H]1CN(C)Cc1ccccc1`, the cytotoxicity call with HSkMC was “inactive”. Further, in the test on S. aureus RN4220, the growth inhibition call was “inactive”.

Consider `C[C@@H]1CN([C@@H](C)CO)C(=O)c2cccc(NC(=O)c3cnccn3)c2O[C@H]1CN(C)CC1CCCCC1`, for which the cytotoxicity call in the test with HSkMC was “inactive”. Further, the growth inhibition call in the test on S. aureus RN4220 was “inactive”.

Consider `C[C@@H]1CN([C@@H](C)CO)C(=O)c2cc(C#Cc3cccc(F)c3)cnc2O[C@H]1CN(C)Cc1ccccn1`, for which the cytotoxicity call with HSkMC was “inactive”. In the test on S. aureus RN4220, the growth inhibition call was “inactive”.

Regarding `COC(=O)c1c2oc(c1C(=O)OC)C(=O)N[C@@H](Cc1ccccc1)Cn1cc(nn1)CNC(=O)[C@@H](Cc1ccccc1)NC(=O)N[C@@H](CO)CC2`, the cytotoxicity call in the test on HSkMC is “inactive”. In the test with S. aureus RN4220, the growth inhibition call is “inactive”.

As for `COc1cc(O)c2c(=O)cc(C)oc2c1CC=C(C)C`, the cytotoxicity call in the test with HSkMC is “inactive”. The growth inhibition call in the test on S. aureus RN4220 is “inactive”.

As to `C[C@@H]1CN([C@H](C)CO)C(=O)c2cccc(NC(=O)Nc3ccc4c(c3)OCO4)c2O[C@H]1CN(C)S(C)(=O)=O`, the cytotoxicity call in the test on HSkMC (human skeletal muscle cells) was “inactive”. For the same compound, the growth inhibition call with S. aureus RN4220 was “inactive”.

On to `O=C(C[C@H]1C[C@H]2c3cc(NC(=O)NC4CCCC4)ccc3O[C@H]2[C@H](CO)O1)NCc1ccc(-c2ccccc2)cc1`, for which the cytotoxicity call with HSkMC was “inactive”. In addition, the growth inhibition call in the test with S. aureus RN4220 was “inactive”.

As to `CNC[C@H]1Oc2cc(C#CC(C)(C)O)ccc2S(=O)(=O)N([C@H](C)CO)C[C@@H]1C`, in the test with HSkMC, the cytotoxicity call was “inactive”. Also, the growth inhibition call with S. aureus RN4220 is “inactive”.

For the origin of these results see the antibiotic and cytotoxicity screens of Wong et al. (2023).
